Test results published in PubChem BioAssay (NCI).
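Five concentrations, 48 hours, 96-well plates. Abbreviation: GI50, concentration required for 50% inhibition of growth. TGI: concentration producing complete growth inhibition.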

The molecules below were run on NCI-H322M lung (assay: NCI anticancer screen, dose series, 48 h).
`[2H]C([2H])([2H])Oc1ccc2ncc(C#Cc3cncc(C(=O)Nc4ccc(CN5CCN(C)CC5)c(C(F)(F)F)c4)c3)n2n1` was tested, and the GI50 was 0.99 µM and the TGI was 13.5 µM.
`O=C(COc1ccc(NC(=O)Nc2ccc(Cl)c(Cl)c2)cc1)N=Nc1c(O)[nH]c2ccccc12` was tested, and the GI50 was 9.64 µM and the TGI was 31.1 µM.
`Cc1cc(C2(c3cc(C)c(OCC(O)CNc4c(C)n(C)n(-c5ccccc5)c4=O)cc3C(C)C)OC(=O)c3ccccc32)c(C(C)C)cc1OCC(O)CNc1c(C)n(C)n(-c2ccccc2)c1=O` (stereo unspecified) was tested, and the GI50 was 22.2 µM and the TGI was greater than 100 µM.
